# Data from paper PMC4336329 (PLoS ONE, 2015).
# The campaign covered roughly 310,000 compounds. About 14,000 (4.5%) showed an effect of 50% or more. The effect is printed as a negative number. Some of the results follow. Where a SMILES comes first, the peptide text is derived from it. The star is where a group is joined. Boc = CC(C)(C)OC(=O)*
# Molecular target: human ether-à-go-go-related gene (hERG) potassium channel (human, UniProt Q12809)
# Assay: primary screen, population patch clamp on CHO cells stably expressing hERG
# 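Note: peak tail current of the secondary pulse compared with the same well before compound.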
# Chain of human ether-à-go-go-related gene (hERG) potassium channel (Q12809 whole entry, looked up): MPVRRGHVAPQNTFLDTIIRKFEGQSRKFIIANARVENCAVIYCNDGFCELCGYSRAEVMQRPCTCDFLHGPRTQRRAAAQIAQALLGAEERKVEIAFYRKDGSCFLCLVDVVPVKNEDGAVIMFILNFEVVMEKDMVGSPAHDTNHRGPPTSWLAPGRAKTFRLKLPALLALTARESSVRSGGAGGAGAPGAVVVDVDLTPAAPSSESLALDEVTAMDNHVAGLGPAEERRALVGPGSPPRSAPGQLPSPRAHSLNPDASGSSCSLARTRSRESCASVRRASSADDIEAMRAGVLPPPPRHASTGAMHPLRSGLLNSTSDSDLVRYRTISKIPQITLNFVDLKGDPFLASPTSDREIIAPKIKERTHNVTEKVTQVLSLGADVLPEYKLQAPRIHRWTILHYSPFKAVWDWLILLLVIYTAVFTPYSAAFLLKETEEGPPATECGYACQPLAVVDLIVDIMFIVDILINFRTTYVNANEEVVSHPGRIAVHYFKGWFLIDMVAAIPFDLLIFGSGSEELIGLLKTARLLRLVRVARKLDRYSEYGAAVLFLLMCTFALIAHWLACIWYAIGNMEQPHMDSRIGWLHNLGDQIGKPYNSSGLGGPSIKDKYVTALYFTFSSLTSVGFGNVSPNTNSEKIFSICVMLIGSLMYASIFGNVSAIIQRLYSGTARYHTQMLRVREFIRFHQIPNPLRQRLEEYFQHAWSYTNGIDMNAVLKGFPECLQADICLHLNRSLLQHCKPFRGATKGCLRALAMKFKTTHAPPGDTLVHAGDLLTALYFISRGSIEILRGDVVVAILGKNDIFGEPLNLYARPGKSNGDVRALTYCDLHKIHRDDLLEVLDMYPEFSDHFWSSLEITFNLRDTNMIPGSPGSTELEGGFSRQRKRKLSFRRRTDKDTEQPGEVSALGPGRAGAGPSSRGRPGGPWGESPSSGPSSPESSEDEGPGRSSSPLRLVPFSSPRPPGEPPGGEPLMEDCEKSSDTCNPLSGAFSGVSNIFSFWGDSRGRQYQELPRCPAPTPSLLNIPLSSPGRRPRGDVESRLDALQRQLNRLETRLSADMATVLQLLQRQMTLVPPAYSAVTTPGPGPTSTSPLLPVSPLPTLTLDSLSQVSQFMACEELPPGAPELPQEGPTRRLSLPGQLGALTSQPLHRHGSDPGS
row,Compound,"hERG current change (%, negative = inhibition) at 10uM [%]"
1,COc1ccc(CCNC(=O)CSc2nc3c(c(=O)n(C)c(=O)n3C)n2C)cc1OC,4.6
2,CC(=O)c1c(C)[nH]c(C(=O)NCc2ccc(F)cc2)c1C,7.05
3,COc1ccc(S(=O)(=O)n2[nH]c(=O)c(CCO)c2C)cc1,14.8
4,Cc1cc(C)nc(SCc2ccc(C(=O)N/N=C/c3ccco3)cc2)n1,-25.7
5,C=CCn1c(SCc2ccccc2)nnc1-c1cccnc1,-20.5
6,Cc1ccccc1N1CC(C(=O)N2CC(C)CC(C)C2)CC1=O (stereo not shown),5.36
7,CC(NC(N)=O)C(=O)OCc1ccc(Cl)cc1Cl (stereo not shown),16.7
8,Cc1cc(N)ccc1NC(=O)CN1CCOCC1,15.8
9,COc1ccc(CCNC(=O)c2c(O)c3ccccc3[nH]c2=O)cc1OC,21.3
10,COc1cccc(CN(C)C(=O)CNC(=O)c2cccs2)c1OC,0.319
11,COc1ccc(-n2nc(C(=O)NCc3ccco3)c3ccccc3c2=O)cc1,-17.1
12,COC(=O)c1cc(Cl)c(NC(=O)c2cc(OC)c(OC)c(OC)c2)cc1OC,12.2
13,Cc1ccc(C(=O)Nc2ccc(NC(=O)c3cccs3)cc2)cc1[N+](=O)[O-],17.5
14,Cc1cc(C)cc(NC(=S)NC2CC3CCCC(C2)N3C2CCCC2)c1 (stereo not shown),-77.5
15,Cc1ccnn1CCC(=O)N1CCCC(CCC(=O)N2CCN(c3ccccn3)CC2)C1 (stereo not shown),-48.2
16,O=S(=O)(Nc1ccc(N2CCOCC2)nn1)c1ccccc1,12.9
17,COCCNC(=O)COC(=O)c1nsc(Cl)c1Cl,-5.23
18,O=C(O)c1ccccc1NC(=O)C1CCCO1 (stereo not shown),13.5
19,Cc1cccc(OCC(=O)Nc2ncn[nH]2)c1C,0.301
20,CCC(CC)C(=O)NCCc1ccc(OC)c(OC)c1,11
21,CCOc1ccccc1NC(=O)CCCNC(=O)Cn1cnc2sc(C)c(C)c2c1=O,8.27
22,COc1ccc(CCN2C(=O)C3CC(C)=C(C)CC3C2=O)cc1OC (stereo not shown),-8.87
23,CN(CC(=O)Nc1cccc(F)c1)C(=O)Cn1c(=O)oc2ccccc21,2.01

row,Compound,"hERG current change (%, negative = inhibition) at 10uM [%]"
1,CCOC(=O)c1[nH]c(C)c(CC(C)C)c1C,13
2,CCCCNC(=O)N1CCN(S(C)(=O)=O)CC1,13.4
3,COc1ccc(CCC(C)NCc2ccc(Cl)c(Cl)c2)cc1 (stereo not shown),-53.7
4,Cc1nn(Cc2ccc(F)cc2)c(C)c1NC(=O)c1cnn2c1NC(c1cccs1)CC2C(F)(F)F (stereo not shown),-7.32
5,COc1ccc([C@@]2(C(C)C)ON(c3ccccc3C(F)(F)F)C2=O)cc1,17.4
6,Cc1ccc(OCC(=O)N/N=C2/SCC(=O)N2Cc2ccco2)cc1,-28
7,CC1CCN(C(=O)C2COc3ccccc3O2)CC1 (stereo not shown),-2.23
8,COc1ccc(N(CC(=O)Nc2ccc(F)c(F)c2)S(=O)(=O)c2c(C)n[nH]c2C)cc1,18.5
9,COc1ccccc1N1CCN(c2ccc([N+](=O)[O-])cn2)CC1,0.823
10,CC(=O)Nc1ccc(SCC(=O)c2c(N)n(Cc3ccccc3)c(=O)n(C)c2=O)cc1,14
11,COc1ccc(-c2nc3ccccc3s2)cc1O,-0.405
12,Cc1cc(=O)[nH]c(SCC(=O)Nc2ccccc2[N+](=O)[O-])n1,4.57
13,O=C(NCc1cccs1)c1cc(-c2ccccc2)on1,-1.22
14,c1coc(CNc2nc3nonc3nc2NCc2ccco2)c1,-25.4
15,Cl.c1ccc2c(NCC3CCCO3)nc(N3CCOCC3)nc2c1 (stereo not shown),-49.5
16,CC(=O)[C@@]1(O)CCC2C3C=CC4=CC(=O)CC[C@]4(C)C3CC[C@@]21C (stereo partly shown),5.47
17,COc1ccc(N2CCN(CCNC(=O)Nc3cc(Cl)ccc3OC)CC2)cc1,3.23
18,CSCCC(NC(=O)OC(C)(C)C)C(=O)NC(C(=O)NC(CC(C)C)C(N)=O)C(C)C (stereo not drawn) (Boc-Met-Val-Leu-NH2; configuration not given here),6.66
19,COc1cc(NC(=O)CSc2nc3ccccc3cc2Cc2ccccc2)cc(OC)c1,-5.88
20,O=C(CCN1C(=O)/C(=C\c2cccs2)SC1=S)NC1=NCCS1,-1.18
21,CCOc1ccc(/C=N/NC(=O)c2[nH]c3ccc(C)cc3c2C)cc1,12.4
22,CC(C)OC(=O)C(=O)NNc1ccccc1,11.3
23,COC(=O)c1ccccc1NC(=O)Nc1cnccn1,26.5

row,Compound,"hERG current change (%, negative = inhibition) at 10uM [%]"
1,CC(C)(C)OC(=O)N[C@@H](/C=C/c1ccccc1)C(=O)OC(C)(C)C,-11.2
2,NC(=O)CCCC1=NS(=O)(=O)c2ccccc2N1,11.5
3,O=C(COc1ccc(Br)cc1)Nc1ccc([N+](=O)[O-])cn1,-19.7
4,Cn1c2ccccc2c2nnc(SCc3ccc4nonc4c3)nc21,7.92
5,CCCc1cc(=O)oc2c3c(cc(OCC(=O)NCc4ccncc4)c12)OC(C)(C)CC3,-65
6,Cc1cc(C(=O)N/N=C(\CCC(=O)O)c2cccs2)c2ccccc2n1,17.4
7,CCOc1ccc(NC(=O)CCN2C(=S)NC(C)(C)CC2C)cc1 (stereo not shown),22.5
8,CCN(CC)C(=O)c1cn(CCC#N)nc1-c1ccc2ccccc2c1,8.84
9,CCOC(=O)C(Oc1ccc(=O)[nH]n1)C(C)=O (stereo not shown),-6.6
10,O=C(OCCCc1cc2ccccc2c(=O)o1)c1ccco1,-16.2
11,CCN(CC)S(=O)(=O)c1ccc2c(c1)nc(CCC(=O)OCc1c(C)noc1C)n2C,-12.4
12,Cc1cccc(N(C)C(=O)c2cc(S(=O)(=O)N3CCCCC3)c[nH]2)c1,6.97
13,Cn1nccc1NC(=O)Nc1ccc(Cl)cc1,20.6
14,O=C(c1cccs1)N1CCOCC1,6.52
15,Cc1onc(-c2c(Cl)cccc2Cl)c1C(=O)c1c[nH]c(C(=O)NCCCN2CCOCC2)c1,-7.65
16,COc1cccc(OC)c1NC(=O)CN1CCN(C)CC1.O=C(O)C(=O)O,16
17,S=c1[nH]nc(-c2ccccc2)n1C1C=CCCC1 (stereo not shown),6.32
18,Cc1cc(C)n(-c2nnc(NC(C)(C)C)nn2)n1,10.7
19,CCCCN(C(=O)c1cc(=O)[nH]c2ccccc12)c1c(N)n(CCCC)c(=O)[nH]c1=O,18.5
20,COCCN(C(=O)c1cc2c(s1)CCCCC2)c1c(N)n(CC(C)C)c(=O)[nH]c1=O,3.04
21,CCN(C(=O)COC(=O)c1ccccc1NCCO)C1CCS(=O)(=O)C1 (stereo not shown),-5.97
22,Fc1ccc(-n2c(CN3CCCCC3)n[nH]c2=S)cc1,26.6
23,CCC(C(=O)NCc1ccco1)n1nc(C)n2c(cc3occc32)c1=O (stereo not shown),12

row,Compound,"hERG current change (%, negative = inhibition) at 10uM [%]"
1,O=C(CNS(=O)(=O)c1cccc(Br)c1)NCCCc1ccccc1,1.04
2,Cc1ccc(NS(=O)(=O)c2ccc(CCC(=O)N3CCCC3)cc2)cc1,11
3,CCc1c(C)nc(N2CCN(c3cccc(OC)c3)CC2)[nH]c1=O,9.29
4,CCNS(=O)(=O)c1ccc(CCC(=O)NCCc2ccc(OC)cc2)cc1,-5.89
5,Cc1ccc(C(=O)Nc2ccc([N+](=O)[O-])cn2)o1,-20.4
6,CNc1snc(C)c1C(=O)OC(C)C(=O)Nc1cccc(OC)c1 (stereo not shown),-6.5
7,CCOC(=O)C1(c2ccccc2)NC(c2ccccc2C)C2C(=O)N(c3ccc4c(c3)OCO4)C(=O)C21 (stereo not shown),-26.6
8,CCn1c(=O)cc(OCC(=O)NCCCN2CCN(c3cccc(Cl)c3)CC2)c2ccccc21,-61.1
9,Cc1cccc(NC(=O)c2ccc(N3C(=O)C4CCCCC4C3=O)cc2)c1C (stereo not shown),1.8
10,Cc1cccc(N(C)c2cc(C)nc3nc(C)nn23)c1,-15.8
11,COc1ccc(OC)c(Nc2c3c(nc4ccccc24)CCC3)c1,-67.8
12,O=C(NCCc1ccc(Cl)cc1)c1ccc(CNc2c(N3CCOCC3)c(=O)c2=O)cc1,25.7
13,CN(C)S(=O)(=O)c1cccc(C(=O)NCc2ccco2)c1,10.7
14,C=CCOC(=O)C(C#N)c1nc2ccccc2nc1N1CCN(c2ccccc2OC)CC1 (stereo not shown),6.56
15,O=C(CCSc1ccccc1)Nc1ncccn1,14.9
16,COc1ccc(C)cc1NC(=O)CCNC(=O)Cn1cnc2ccccc2c1=O,10.2
17,COc1ccc(-n2nc3c(c2NC(=O)C(C)Cl)CSC3)cc1 (stereo not shown),13.2
18,O=C(Nc1ccc(N2CCCC2)cc1)c1ccc(Br)cc1,21.5
19,CCOC(=O)c1cc2c(=O)n3cccc(C)c3nc2n(CC(C)C)c1=NC(=O)c1ccco1,-69.7
20,Cc1ccc(CC(=O)NCCCc2ccccc2)cc1,-6.1
21,CC1(C)CC2(CC(C)(C(=O)CSc3nc4ccccc4s3)OC2=O)C(=O)O1 (stereo not shown),1.98
22,CCc1ccc(Nc2ccc(C(N)=O)cc2[N+](=O)[O-])cc1,8.56
